Source: the supplement of paper PMC12217912
The other results are listed elsewhere or left out. Sequences were assembled here from the parent chain. Inactive controls read about 0.05.

B1: TEV protease; numbered along this chain (parent)
chain: MGESLFKGPRDYNPISSSICHLTNESDGHTTSLYGIGFGPFIITNKHLFRRNNGTLVVQSLHGVFKVKDTTTLQQHLVDGRDMIIIRMPKDFPPFPQKLKFREPQREERICLVTTNFQTKSMSSMVSDTSCTFPSGDGIFWKHWIQTKDGQCGSPLVSTRDGFIVGIHSASNFTNTNNYFTSVPKNFMELLTNQEAQQWVSGWRLNADSVLWGGHKVFMVKPEEPFQPVKEATQL

Variants of: B1
Test: raw area under fraction-flipped curve 0-4 h after induction (AUC4h, not background-subtracted), DNA-recorder readout of cleavage of the substrate (dimensionless); higher = more cleavage of the substrate by the protease variant
Conditions: temperature: 34 °C; time window: 0-4 h after rhamnose induction
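Note: Bxb1 expression induced with 0.2% (w/v) L-rhamnose at OD600 near 0.5, cultures sampled hourly, flipped fraction per protease–substrate barcode pair counted by paired-end Illumina sequencing.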

| Variant | area with substrate ECLYFQS | area with substrate ELLYFQS | area with substrate EQLYFQS | area with substrate ESLYFQS | area with substrate ETLYFQS | area with substrate EWLYFQS | area with substrate EDLYFQS | area with substrate EELYFQS | area with substrate EILYFQS | area with substrate EKLYFQS |
| --- | --- | --- | --- | --- | --- | --- | --- | --- | --- | --- |
| MGESLFKGPRDYNPISSSICHLTNESDGHTTSLYGIGFGPFIITNKHLFRRNNGTLVVQSLHGVFKVKDTTTLQQHLVDGRDMIIIRMPKDFPPFPQKLKFREPQREERICLVTRNFQTKSMSSMVSDTSCTFPSGDGIFWKHWIQTKDGQCGSPLVSTRDGFIVGIHSASNFTNTNNYFTSVPKNFMELLTNQEAQQWVSGWRLNADSVLWGGHKVFMVKPEEPFQPVKEATQL [T115R] | 0.0987 | 0.0753 | 0.134 | 0.135 | 0.152 | 0.127 | – | – | – | – |
| MGESLFKGPRDYNPISSSICHLTNESDGHTTSLYGIGFGPFIITNKHLFRRNNGTLVVQSLHGVFKVKDTTTLQQHLVDGRDMIIIRMPKDFPPFPQKLKFREPQREERICLVTTFFQTKSMSSMVSDTSCTFPSGDGIFWKHWIQTKDGQCGSPLVSTRDGFIVGIHSASNFTNTNNYFTSVPKNFMELLTNQEAQQWVSGWRLNADSVLWGGHKVFMVKPEEPFQPVKEATQL [N116F] | 0.0622 | 0.106 | 0.0987 | 0.112 | – | – | 0.122 | 0.104 | 0.103 | 0.0827 |
| MGESLFKGPRDYNPISSSICHLTNESDGHTTSLYGIGFGPFIITNKHLFRRNNGTLVVQSLHGVFKVKDTTTLQQHLVDGRDMIIIRMPKDFPPFPQKLKFREPQREERICLVTTNFWTKSMSSMVSDTSCTFPSGDGIFWKHWIQTKDGQCGSPLVSTRDGFIVGIHSASNFTNTNNYFTSVPKNFMELLTNQEAQQWVSGWRLNADSVLWGGHKVFMVKPEEPFQPVKEATQL [Q118W] | 0.0989 | – | – | – | – | – | – | – | – | – |
| MGESLFKGPRDYNPISSSICHLTNESDGHTTSLYGIGFGPFIITNKHLFRRNNGTLVVQSLHGVFKVKDTTTLQQHLVDGRDMIIIRMPKDFPPFPQKLKFREPQREERICLVTTNFQCKSMSSMVSDTSCTFPSGDGIFWKHWIQTKDGQCGSPLVSTRDGFIVGIHSASNFTNTNNYFTSVPKNFMELLTNQEAQQWVSGWRLNADSVLWGGHKVFMVKPEEPFQPVKEATQL [T119C] | 0.106 | 0.0827 | – | 0.0886 | 0.0556 | – | – | – | – | 0.0935 |
| MGESLFKGPRDYNPISSSICHLTNESDGHTTSLYGIGFGPFIITNKHLFRRNNGTLVVQSLHGVFKVKDTTTLQQHLVDGRDMIIIRMPKDFPPFPQKLKFREPQREERICLVTTNFQQKSMSSMVSDTSCTFPSGDGIFWKHWIQTKDGQCGSPLVSTRDGFIVGIHSASNFTNTNNYFTSVPKNFMELLTNQEAQQWVSGWRLNADSVLWGGHKVFMVKPEEPFQPVKEATQL [T119Q] | 0.118 | – | – | 0.101 | – | 0.122 | – | – | – | 0.145 |
| MGESLFKGPRDYNPISSSICHLTNESDGHTTSLYGIGFGPFIITNKHLFRRNNGTLVVQSLHGVFKVKDTTTLQQHLVDGRDMIIIRMPKDFPPFPQKLKFREPQREERICLVTTNFQSKSMSSMVSDTSCTFPSGDGIFWKHWIQTKDGQCGSPLVSTRDGFIVGIHSASNFTNTNNYFTSVPKNFMELLTNQEAQQWVSGWRLNADSVLWGGHKVFMVKPEEPFQPVKEATQL [T119S] | 0.116 | – | – | 0.104 | – | – | 0.116 | – | – | – |
| MGESLFKGPRDYNPISSSICHLTNESDGHTTSLYGIGFGPFIITNKHLFRRNNGTLVVQSLHGVFKVKDTTTLQQHLVDGRDMIIIRMPKDFPPFPQKLKFREPQREERICLVTTNFQTKSMSGMVSDTSCTFPSGDGIFWKHWIQTKDGQCGSPLVSTRDGFIVGIHSASNFTNTNNYFTSVPKNFMELLTNQEAQQWVSGWRLNADSVLWGGHKVFMVKPEEPFQPVKEATQL [S124G] | 0.106 | 0.105 | 0.15 | 0.121 | – | 0.0848 | 0.137 | 0.136 | 0.0973 | – |
| MGESLFKGPRDYNPISSSICHLTNESDGHTTSLYGIGFGPFIITNKHLFRRNNGTLVVQSLHGVFKVKDTTTLQQHLVDGRDMIIIRMPKDFPPFPQKLKFREPQREERICLVTTNFQTKSMSSMVSDDSCTFPSGDGIFWKHWIQTKDGQCGSPLVSTRDGFIVGIHSASNFTNTNNYFTSVPKNFMELLTNQEAQQWVSGWRLNADSVLWGGHKVFMVKPEEPFQPVKEATQL [T129D] | 0.101 | – | 0.132 | – | 0.133 | 0.0721 | – | 0.143 | – | – |
| MGESLFKGPRDYNPISSSICHLTNESDGHTTSLYGIGFGPFIITNKHLFRRNNGTLVVQSLHGVFKVKDTTTLQQHLVDGRDMIIIRMPKDFPPFPQKLKFREPQREERICLVTTNFQTKSMSSMVSDHSCTFPSGDGIFWKHWIQTKDGQCGSPLVSTRDGFIVGIHSASNFTNTNNYFTSVPKNFMELLTNQEAQQWVSGWRLNADSVLWGGHKVFMVKPEEPFQPVKEATQL [T129H] | 0.0597 | 0.0863 | – | – | 0.137 | – | 0.138 | – | 0.0931 | 0.161 |
| MGESLFKGPRDYNPISSSICHLTNESDGHTTSLYGIGFGPFIITNKHLFRRNNGTLVVQSLHGVFKVKDTTTLQQHLVDGRDMIIIRMPKDFPPFPQKLKFREPQREERICLVTTNFQTKSMSSMVSDKSCTFPSGDGIFWKHWIQTKDGQCGSPLVSTRDGFIVGIHSASNFTNTNNYFTSVPKNFMELLTNQEAQQWVSGWRLNADSVLWGGHKVFMVKPEEPFQPVKEATQL [T129K] | 0.104 | 0.0923 | 0.0901 | 0.0824 | 0.089 | 0.111 | – | – | 0.101 | 0.108 |
| MGESLFKGPRDYNPISSSICHLTNESDGHTTSLYGIGFGPFIITNKHLFRRNNGTLVVQSLHGVFKVKDTTTLQQHLVDGRDMIIIRMPKDFPPFPQKLKFREPQREERICLVTTNFQTKSMSSMVSDTSKTFPSGDGIFWKHWIQTKDGQCGSPLVSTRDGFIVGIHSASNFTNTNNYFTSVPKNFMELLTNQEAQQWVSGWRLNADSVLWGGHKVFMVKPEEPFQPVKEATQL [C131K] | 0.118 | – | – | 0.109 | 0.141 | – | 0.0982 | – | – | – |
| MGESLFKGPRDYNPISSSICHLTNESDGHTTSLYGIGFGPFIITNKHLFRRNNGTLVVQSLHGVFKVKDTTTLQQHLVDGRDMIIIRMPKDFPPFPQKLKFREPQREERICLVTTNFQTKSMSSMVSDTSCNFPSGDGIFWKHWIQTKDGQCGSPLVSTRDGFIVGIHSASNFTNTNNYFTSVPKNFMELLTNQEAQQWVSGWRLNADSVLWGGHKVFMVKPEEPFQPVKEATQL [T132N] | 0.0785 | – | 0.0763 | 0.0762 | – | – | – | – | 0.0673 | – |

Same assay, conditions: temperature: 34 °C; time window: 0-4 h after rhamnose induction

| Variant | area with substrate ERLYFQS | area with substrate EFLYFQS | area with substrate EVLYFQS | area with substrate EYLYFQS | area with substrate EPLYFQS | area with substrate EMLYFQS | area with substrate EGLYFQS | area with substrate EHLYFQS |
| --- | --- | --- | --- | --- | --- | --- | --- | --- |
| MGESLFKGPRDYNPISSSICHLTNESDGHTTSLYGIGFGPFIITNKHLFRRNNGTLVVQSLHGVFKVKDTTTLQQHLVDGRDMIIIRMPKDFPPFPQKLKFREPQREERICLVTTFFQTKSMSSMVSDTSCTFPSGDGIFWKHWIQTKDGQCGSPLVSTRDGFIVGIHSASNFTNTNNYFTSVPKNFMELLTNQEAQQWVSGWRLNADSVLWGGHKVFMVKPEEPFQPVKEATQL [N116F] | 0.0926 | – | – | – | – | – | – | – |
| MGESLFKGPRDYNPISSSICHLTNESDGHTTSLYGIGFGPFIITNKHLFRRNNGTLVVQSLHGVFKVKDTTTLQQHLVDGRDMIIIRMPKDFPPFPQKLKFREPQREERICLVTTNFWTKSMSSMVSDTSCTFPSGDGIFWKHWIQTKDGQCGSPLVSTRDGFIVGIHSASNFTNTNNYFTSVPKNFMELLTNQEAQQWVSGWRLNADSVLWGGHKVFMVKPEEPFQPVKEATQL [Q118W] | – | 0.1 | – | – | – | – | – | – |
| MGESLFKGPRDYNPISSSICHLTNESDGHTTSLYGIGFGPFIITNKHLFRRNNGTLVVQSLHGVFKVKDTTTLQQHLVDGRDMIIIRMPKDFPPFPQKLKFREPQREERICLVTTNFQCKSMSSMVSDTSCTFPSGDGIFWKHWIQTKDGQCGSPLVSTRDGFIVGIHSASNFTNTNNYFTSVPKNFMELLTNQEAQQWVSGWRLNADSVLWGGHKVFMVKPEEPFQPVKEATQL [T119C] | – | 0.0938 | 0.0937 | 0.122 | – | – | – | – |
| MGESLFKGPRDYNPISSSICHLTNESDGHTTSLYGIGFGPFIITNKHLFRRNNGTLVVQSLHGVFKVKDTTTLQQHLVDGRDMIIIRMPKDFPPFPQKLKFREPQREERICLVTTNFQSKSMSSMVSDTSCTFPSGDGIFWKHWIQTKDGQCGSPLVSTRDGFIVGIHSASNFTNTNNYFTSVPKNFMELLTNQEAQQWVSGWRLNADSVLWGGHKVFMVKPEEPFQPVKEATQL [T119S] | 0.0523 | 0.0892 | – | – | – | – | – | – |
| MGESLFKGPRDYNPISSSICHLTNESDGHTTSLYGIGFGPFIITNKHLFRRNNGTLVVQSLHGVFKVKDTTTLQQHLVDGRDMIIIRMPKDFPPFPQKLKFREPQREERICLVTTNFQTKSMSGMVSDTSCTFPSGDGIFWKHWIQTKDGQCGSPLVSTRDGFIVGIHSASNFTNTNNYFTSVPKNFMELLTNQEAQQWVSGWRLNADSVLWGGHKVFMVKPEEPFQPVKEATQL [S124G] | – | – | 0.0973 | 0.141 | 0.142 | – | – | – |
| MGESLFKGPRDYNPISSSICHLTNESDGHTTSLYGIGFGPFIITNKHLFRRNNGTLVVQSLHGVFKVKDTTTLQQHLVDGRDMIIIRMPKDFPPFPQKLKFREPQREERICLVTTNFQTKSMSSMVSDDSCTFPSGDGIFWKHWIQTKDGQCGSPLVSTRDGFIVGIHSASNFTNTNNYFTSVPKNFMELLTNQEAQQWVSGWRLNADSVLWGGHKVFMVKPEEPFQPVKEATQL [T129D] | – | 0.12 | – | – | – | 0.12 | – | – |
| MGESLFKGPRDYNPISSSICHLTNESDGHTTSLYGIGFGPFIITNKHLFRRNNGTLVVQSLHGVFKVKDTTTLQQHLVDGRDMIIIRMPKDFPPFPQKLKFREPQREERICLVTTNFQTKSMSSMVSDHSCTFPSGDGIFWKHWIQTKDGQCGSPLVSTRDGFIVGIHSASNFTNTNNYFTSVPKNFMELLTNQEAQQWVSGWRLNADSVLWGGHKVFMVKPEEPFQPVKEATQL [T129H] | – | – | – | – | – | – | 0.104 | 0.0799 |
| MGESLFKGPRDYNPISSSICHLTNESDGHTTSLYGIGFGPFIITNKHLFRRNNGTLVVQSLHGVFKVKDTTTLQQHLVDGRDMIIIRMPKDFPPFPQKLKFREPQREERICLVTTNFQTKSMSSMVSDKSCTFPSGDGIFWKHWIQTKDGQCGSPLVSTRDGFIVGIHSASNFTNTNNYFTSVPKNFMELLTNQEAQQWVSGWRLNADSVLWGGHKVFMVKPEEPFQPVKEATQL [T129K] | – | – | 0.0986 | – | – | 0.114 | – | – |
| MGESLFKGPRDYNPISSSICHLTNESDGHTTSLYGIGFGPFIITNKHLFRRNNGTLVVQSLHGVFKVKDTTTLQQHLVDGRDMIIIRMPKDFPPFPQKLKFREPQREERICLVTTNFQTKSMSSMVSDTSCNFPSGDGIFWKHWIQTKDGQCGSPLVSTRDGFIVGIHSASNFTNTNNYFTSVPKNFMELLTNQEAQQWVSGWRLNADSVLWGGHKVFMVKPEEPFQPVKEATQL [T132N] | – | – | – | 0.0628 | 0.125 | 0.107 | 0.0556 | 0.0845 |
